This sample is rich in variants without activity.
B1: TPR 5TU (parent)
chain: GGAUCUUCUCGAUCUAACAAAAAAGACAAAUCUGCCACAAAGCUUGAGAGCAUCUUCGGAUGCAGAGGCGGCAGCCUUCGGUGGCGCGAUAGCGCCAACGUUCUCAACUAUGACACGCAAAACGCGUGCUCCGUUGAAUGGAGUUUAUCAUG

Variants of: B1
Assay: polymerase ribozyme fitness, log enrichment relative to wild type (log ratio); higher = more active; in vitro selection for triplet polymerase activity
Procedure, shortened: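 Genotype fitness is the logarithm of its enrichment divided by wild-type enrichment, using inverse-variance-weighted averages of replicates. That logarithm is base 2. Enrichment was measured by Illumina sequencing of input and output libraries from one triplicate in vitro selection round, with frozen incubation at −7 °C, on PCR-built, transcribed mutant libraries of each subunit of a heterodimeric triplet polymerase ribozyme, retaining genotypes with ≥10 input reads and ≥1 read per output.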

Polymerase ribozyme fitness (log ratio), ≤ -4.2:
C43U G70C G80A C149U
A47U C75A G83C A91U U127A
G42C U61G U78C
C43G U53A C54U U78G U139A
G46C C76A C85G U90G A121U
G46U A52C G71A C85A C96G C149U
A47C A60U C75U A91G A107G C118A
G46C G58U A91U U130C U146A
G42U G81U G94C A97G
U45A C93U G143C
C43A A47C G83C G126U C131U
A47C A49U U53A U56A C72U C108U C132U
A47C G92U C96G C125A C129U
C43A G59A U61A C85U C132U U139G U148A U151A
G42U C43U C95U C99G C103A U135G
C43U C79G G94U A142C U144A
A47C G48C A73C C85U C96U C99G U101C
U45A A49C
C43U U77G C99U A106C U146A
C43G U148A
G48A C79A U101G A142U
G42A G50U C95A A115U A119C
A47C A66G A113U U130G C132A
G46A C54G A66G C95U A142U
G42U G58A A91U C114A C129G G141C
U44A G84U G94C A107U G126A G140U A142C
A47U G84A C105G
G46U U55G A89U C95A C103G C114A A138C
U45G C54A A66G C76G C85U A137G A147C
U45G C51U C54G C95A C99G G152U
U45A C75G C118G
A47U A49G U53G C54G C87U A137G
G42A C85G A122C
G42C G62A C95U A97C
U44G U56G C57U A66C C87U A106G A142U
C43A U61G C72U G86U A89U C103A C123U
G42A G50C U56A C75G C95U A121G
U45A G59A G140C
U44G A64G C85U
U45A A52C U82C
G46A G48A A91G C96U
U44A U144G
G46C U55A C57A C63U A73G G84U C93G C114A C123G
G46U C75G A89C C99U A113U G133A G140U G141A
U44A U82C C85G G88C C105U G140C
U44A C87U G124A
U45A C108U
U45A C72U A73U G88A C105A A113G U148A
U44C A60U C75U C76G A91G G94A A121G G141C
C43G A121U
G46U G83A G128A
U44A A66U U90G C95A A119U G136C A142G
G42U C99U A120C A137C
U44A C57U C72A G86A A122U
A47C G59C C63A G94A
G42A G74A
G42C G68U C93U C99G C131A
G46A G88U U130G G141U
U45G A47U A64U A66G G88U G92C A97C A122G U134C
U45A C57U A60U G124A A150G
G48A G59U G83U C131A U148C
A47C U55A G68A G81C C93A C96G U101C U109A
A47C A60G A64U G88C A91C
A47G G68A G84A G117U G140A
G46A A66U C118G A119G
U44C G81A C93A
C43U C96U A97U
C43U G62A G92C A113G
G48A G80C A89C
U44G G68A G92C C116G
G48A G92A G143U U146A
U44A C63U A64U C87U U134G
C43G G84U G128U G140U
G42C G58C C95U
G42A U53A U55A C116G
G46U C51G C93U
G46A C75A C76U G94A C95G A147U
A47C G58U U77G C93U U104A
U45A G92U U101G
A47G C75G G81A A120U
G42U G50A C87G C95G U127A G133U U148G G152U
A47U A89G U104A U109A U130G U144G
G42U U45G C76A C85A C125U A147G
A47C G50C C96G C99A
G46A A52C U55A
C43U U53C U55A U56A C57U A121U A122U
G46A U82A A89U C93G G100U
U45C C51U G74C C93A C96G U102G
A47U A49C C57U C108G A142C
U44G G67C A107U
C43G C54G G68U G81U C96A A113G
G48A C114U A150U
U45A A52C C75U C79U C87A G126U
U44A U53A G84A A121U
U45G C54U C93A G133U
G46A A91U G94A C99A C105U A120C A138C G141U
A47C A49U A60C C75U C85G G126U
G42U U56A C76U C87A C116U G140C
A47C G48A A52C A66C C85U
U44A U45A A47C G124A A138C
G42C C54U A73G A120C
C43U G68U A73G U109G A121U
G48A A91C A138U U139A A150U
C43G C75A G88A U109G U144A A147U
G46U C54A C93G A119G U135A
U45A C54U C95G A97C U146C A150G
G42C G50A A97G A122C G133U A142C
U44A C51U G92A U104G
G42U C99U U109C G140C A142C
U45A U55A G67C A138U
G42C G86U C95A
G42A C87U G88A A121G U148G
U45A A91G A119U
C43U G67U G84U A89U C116U U135G
G46C A49C A73C C96G C99G G124U
G42U A49C A97G C99G G100C U134A
G46C G84C A89U
U44G U45A G80A C87G A137C
G46A G48C G84U C125A U135C
G42U U45A C87A A115G C149G
C43A C57G G70A C76A C93U G136C A142C
U44A C69A C96A A106G
C43G A66G G86U U109G
G42C C63U C69U G86A
G46A A66C A98G
C43A U55A C87G C116A
A47G C57U G84A U148G
G46A A49U C96G A110U
G46A A120G A122G G124A A147C C149A
U44G G81U U82C C149U
G48A G67U A73G G124C
C43U C51U U55A G71A A91C G100A U109G A122U
U44A G46C G81U C85A C114G A150C
G42A G59A G81A A107U
G46A A73G C87U C93U
G46C C87A C116G A119U G124A
C43A A52G C75A C87A C114U G117A U139A
A47U G50A U55G G94A C103G U144A
G42C A110C
G42C C87U
U45A G46A G67U A122G
A47G A49C C96A
U45G A49G A98G A107U
G46A G71C G92U G117A C125G
C43U G58U
G46C C57U A73G C85G G94A G152U
A47C U90C C93G C103A G133C G143C
G46A G100A C105G G133C G152U
C43U A73U U90A C95U
G42C U44A G84C U134G
G42A C63G C85A A121U A137U U146G
G46C A66G C72U U77A G92A G100A A115U C116U A120G A121U
A47C G86U A107G
G42A C57U C95A U109G G140U
C43A G100A G143U G152A
G42A C76U U82A C99U G136U
U44G U45G C57U C87G C96U C114U C125G A150C
U45A C76U A98U G100C U101G A106U A150G
C43U A52C C93A C95U
G42A G88C G92C G117A
U45A U111G
U44A U77G C87U
C43U G70C U101C
U44G G94A U101G G136A
C43A G62U C75A C76A C95U
U44G U56G A91U G124C
U44A C72A C96U C114U

Source: the RNAGym collection of RNA variant scans (doi:10.1073/pnas.2313332121)
